# Measured values from PubChem BioAssay AID488969 (Vanderbilt High Throughput Screening Facility, 2010).
# Whole data set: some 110,000 compounds, median “z-score” near -0.1, cut for the highest 2% near 2. This is one part of the list.
# Target: Metabotropic glutamate receptor 8 (Rattus norvegicus) (UniProt P70579)
# Assay: rat mGluR8 modulators via GIRK flux, primary screen, cell-based, thallium flux, HTS (AID 488969)
# Conditions: HEK293 rat mGluR8, GIRK (G protein-gated inwardly rectifying potassium channel) thallium flux, FluoZin2; at 10 µM; stronger effect = higher value; submaximal glutamate (EC20) added with thallium
# Sequence of UniProt P70579 (P70579 whole entry, looked up): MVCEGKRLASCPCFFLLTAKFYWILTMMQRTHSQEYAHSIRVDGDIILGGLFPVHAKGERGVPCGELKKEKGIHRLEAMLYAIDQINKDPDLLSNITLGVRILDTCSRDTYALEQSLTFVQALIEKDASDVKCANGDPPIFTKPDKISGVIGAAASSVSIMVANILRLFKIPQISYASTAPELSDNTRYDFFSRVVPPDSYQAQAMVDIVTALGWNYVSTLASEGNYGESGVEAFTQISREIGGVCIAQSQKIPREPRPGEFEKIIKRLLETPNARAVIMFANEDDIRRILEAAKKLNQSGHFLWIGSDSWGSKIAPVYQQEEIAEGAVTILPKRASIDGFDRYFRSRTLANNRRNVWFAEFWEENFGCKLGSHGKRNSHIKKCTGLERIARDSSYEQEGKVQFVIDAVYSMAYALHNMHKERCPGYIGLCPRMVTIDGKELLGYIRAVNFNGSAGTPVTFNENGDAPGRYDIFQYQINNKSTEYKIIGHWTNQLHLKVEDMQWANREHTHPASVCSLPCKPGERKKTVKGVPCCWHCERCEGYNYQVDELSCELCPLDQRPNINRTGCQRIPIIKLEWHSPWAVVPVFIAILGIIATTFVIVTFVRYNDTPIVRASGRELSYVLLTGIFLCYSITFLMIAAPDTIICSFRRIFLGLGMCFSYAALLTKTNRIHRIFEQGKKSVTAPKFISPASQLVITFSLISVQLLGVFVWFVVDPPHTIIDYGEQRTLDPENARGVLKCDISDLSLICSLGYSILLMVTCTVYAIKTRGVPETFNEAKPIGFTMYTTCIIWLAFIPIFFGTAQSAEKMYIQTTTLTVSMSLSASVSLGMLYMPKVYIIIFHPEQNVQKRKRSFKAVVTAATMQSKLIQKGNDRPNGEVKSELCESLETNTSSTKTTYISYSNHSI
row,Compound,z-score
1,CC(C)CCNC(=O)CNC(=O)c1cccs1,-0.151
2,COc1cccc(CNC(=O)C2CCN(C(=O)N(C)C)CC2)c1,0.335
3,COC(=O)c1cc(NS(=O)(=O)c2ccc(NCc3cccnc3)c(N)c2)cc(C(=O)OC)c1,-0.104
4,COC(=O)c1ccccc1NC(=O)Cn1c(SC)c(F)cnc1=O,0.27
5,CCOC(=O)c1cnc2cc(C)ccn2c1=O,-0.119
6,COc1cccc(NC(=S)NCCN2CCOCC2)c1,-0.0624
7,O=C(CCC1CCCC1)Nc1ccc(OCC(=O)N2CCOCC2)cc1,0.254
8,CCn1c(C)c2c([n+]1CC)CC(C)(C)CC2=O,-0.301
9,Cc1cnn(CCC(=O)NNC(=S)NCC(C)C)c1,-0.286
10,CCC/C(=N\NC(=O)c1ccccc1C)c1ccccc1,-0.166
11,CCOC(=O)c1nonc1NC(C)=O,0.104
12,C(=N\n1cnnc1)/c1ccccc1OCCOc1ccccc1,-0.414
13,CSc1ccc(-c2nnn(CC(=O)NCc3ccccc3)n2)cc1,-0.31
14,O=C(CSc1nnc(Nc2ccccc2)s1)NCCN1C(=O)CSC1=O,-0.304
15,CCCCNC(=S)N(C)/N=C/c1sc(N2CCCCC2)nc1-c1cccs1,-0.408
16,Cn1c(SCC(=O)Nc2ncc(C(F)(F)F)cc2Cl)nnc1-c1ccc(Cl)cc1,0.131
17,COc1cc2cc(CN(CCN3CCCC3)C(=O)Nc3ccc(F)cc3)c(=O)[nH]c2cc1OC,-0.532
18,O=C(NCCN1CCOCC1)c1cccs1,-0.0304
19,CC(C)C(NC(=O)OCc1ccccc1)C(=O)NCc1ccc(C(=O)O)cc1 (stereo unspecified),-0.468

row,Compound,z-score
1,O=C(NCCN1CCOCC1)Nc1ccccc1,-0.0136
2,Cc1ccc2[nH]c(=O)c3cc(C(=O)NCCN4CCN(C)CC4)sc3c2c1,0.666
3,Cc1ccc(S(=O)(=O)N2CCCCC2)cc1C(=O)Nc1ccc(N2CCOCC2)cc1,-0.0255
4,O=C(CSC1=N/C(=C/c2ccc(Cl)c(Cl)c2)C(=O)N1c1ccccc1F)NC1CC1,0.494
5,COc1ccc(/C=N/NC(=O)c2[nH]c3ccc(Br)cc3c2-c2ccccc2)cc1,-0.133
6,CC(C)c1ccc(CN2CC(C(=O)O)CC2=O)cc1 (stereo unspecified),-0.348
7,COc1ccccc1N1CCN(S(C)(=O)=O)CC1,0.541
8,CCC1CCCCN1c1cc(C)nc2cc(-c3cccc(C)c3)nn12 (stereo unspecified),-0.0418
9,O=C(Cn1cnc2ccccc2c1=O)N1CCN(Cc2ccccc2)CC1,-0.354
10,O=C(CCC1CCCC1)N1CCN(C(=O)c2cccnc2)CC1,0.841
11,COc1cc(-c2nnc(SCC#CCO)o2)cc(OC)c1OC,0.882
12,O=S(=O)(NCCOc1ccccc1Cl)c1ccc2oc3ccccc3c2c1,-0.0994
13,c1ccc(-n2nc3ccccc3n2)cc1,-0.148
14,O=C(NC(Cc1ccccc1)C(=O)O)c1ccc(S(=O)(=O)N2CCCC2)cc1 (stereo unspecified),0.0624
15,COc1ccc(OC)c(C(=O)N2CCC(C(=O)c3ccc(F)cc3)CC2)c1,-0.587
16,CCN(c1ccccc1)c1nc2ccsc2c(=O)s1,-0.392
17,CCOC(=O)c1cnc(SCc2nc(N)nc(Nc3ccccc3OC)n2)nc1N,-0.34
18,Cc1cc(C)cc(NC(=O)N2CCC(NC(=O)c3ccccc3C)CC2)c1,-0.296
19,O=C(Nc1ccon1)C(Sc1ccccc1)c1ccccc1 (stereo unspecified),-0.459

row,Compound,z-score
1,COc1ccc(-c2nn(-c3ccccc3)cc2/C=C(/C#N)C(N)=O)cc1[N+](=O)[O-],-0.112
2,COC(=O)c1ccccc1NC(=O)CSc1nnnn1C1CCCCC1,-0.894
3,COc1cc(/C=N/NS(=O)(=O)c2ccccc2)ccc1OS(=O)(=O)c1ccc(C)cc1,-0.33
4,COCCn1nnnc1C(c1cccs1)N1CCN(c2ccccc2)CC1 (stereo unspecified),0.411
5,Cc1cc2ncn(C(=O)N3CCCC3)c2cc1C,0.0628
6,FCCCOc1ccc(/C=N/OCc2ccc(Cl)cc2Cl)cc1,0.201
7,CCCCNCCOCCOc1ccc(F)cc1,0.866
8,CC(=O)Nc1ccc(S(=O)(=O)NCc2ccc(C(=O)NCc3ccc4c(c3)OCO4)cc2)cc1,-0.275
9,CCOC(=O)C1CCN(C(C(=O)Nc2ccc3c(c2)OCCO3)c2ccccc2)CC1 (stereo unspecified),-0.863
10,Cc1cc(=O)n2[nH]c(=O)c(N=Nc3ccccc3)c2[nH]1,-0.442
11,Cc1c(C(=O)NCC2CCCO2)oc2ccc(S(=O)(=O)N3CC(C)CC(C)C3)cc12 (stereo unspecified),1.9
12,COCCCNC(=O)c1c(-c2ccccc2)noc1C,-0.662
13,Cn1ncc([N+](=O)[O-])c1C(=O)Nc1nc2ccccc2n1CCN1CCCCC1,0.546
14,CCOC(=O)Cc1c(C)nc2c(-c3ccccc3)c(-c3ccccc3)[nH]n2c1=O,0.421
15,O=C(N/N=C/c1cccc(F)c1)c1c(O)c2ccccc2[nH]c1=O,-0.268
16,O=C1c2oc3ccccc3c(=O)c2C(c2cccc(O)c2)N1CCCN1CCOCC1 (stereo unspecified),0.0855
17,COc1cccc(C2CC(=O)Nc3cc(OC)c(OC)c(OC)c32)c1OC (stereo unspecified),-0.0778
18,CC(O)CNc1ncnc2nc[nH]c12 (stereo unspecified),0.604
